The whole screen tested about 46,000 compounds, of which about 60 (0.1%) were called active. Inconclusive results (about 3%) are left out. The call rests on the fitted dose curve; in most records, active means well fitted inhibition curve with a large enough effect; inconclusive means small, poorly fitted or top-dose-only effect; inactive means no such curve, though single readings can be large or run the other way. The list shows a part of the results.
test: Primary qHTS assay for Inhibitors of ovarian cancer metastasis using an organotypic tumor microenvironment (TME) model.; further: nearly all actives have a fitted effect of over 65% in size;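 on activity change, negative = inhibition: plate controls were DMSO wells for no effect and tomatine positive control wells for full effect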; conditions: SKOV3ip1-GFP adhesion/invasion on 3D omental model, fluorescence; series mostly up to 45.8 µM; activity change, negative = inhibition: at the top concentration
In short: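 A 3D layer of primary human omental fibroblasts, mesothelial cells, fibronectin and collagen I, grown 48 hr, received SKOV3ip1-GFP cells in serum-free medium plus compounds at 0.36-46 umol/L. After 2 hr RT and 16 hr 37 C, fixed adherent GFP cells were counted; normalized to DMSO and tomatine.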

Activity change, negative = inhibition, inactive:
Cc1cc(C)cc(Nc2ncnc3onc(-c4ccc(F)cc4)c23)c1 3.82%
Cc1ccc(Nc2c(-c3ccc(C)cc3)nc3ccc(C)cn23)cc1 -6.89%
CCc1ccc2oc(-c3cccc(NC(=O)C(C)(C)Oc4ccc(Br)cc4)c3)nc2c1 -7.57%
CCOc1ccccc1NC(=O)C(=O)c1cc(C)n(-c2ccc(F)cc2)c1C -11.9%
CCOc1ccc(-n2cc(-c3ccccc3)c3c(N4CCC(C)CC4)ncnc32)cc1 19.3%
CCS(=O)(=O)c1nc(S(=O)(=O)c2ccc(C)cc2)c(NC(C)c2ccccc2)s1 (stereo unspecified) -30.5%
COc1cccc(-n2c(SCC(=O)N3CCCc4ccccc43)nc3c([nH]c4ccccc43)c2=O)c1 -2.51%
COc1cc(NC(=O)NC(C)c2c(-n3cccc3)sc3c2CCN(C)C3)cc(OC)c1 (stereo unspecified) 0.369%
CCCOc1ccc(CNC(=O)Cn2cc3c(n2)-c2c(oc(C(=O)N4CCOCC4)c2C)CC3)cc1 -7.56%
CCc1ccc(S(=O)(=O)NCc2nc3cccnc3n2Cc2ccccc2Cl)cc1 1.93%
O=C(c1ccc2c(c1)CCCC2)N1CCN(c2nc3ccc(F)cc3s2)CC1 8.09%
CCOc1ccc(CNC(=O)c2cc3c(s2)-c2ccccc2OC3)cc1 -8.3%
COc1ccc(S(=O)(=O)c2cc3cc(OC)ccc3oc2=O)cc1 3.76%
COc1ccc(C(=O)c2oc3ccccc3c2NC(=O)COc2ccc(C)cc2)cc1 3.62%
CC(NC(=O)c1ccc(Cn2c(=O)c3cccn3c3cccnc32)cc1)c1ccccc1 (stereo unspecified) -7.55%
Cc1ccc(NC(=O)Cn2c(=O)n(CCCS(=O)(=O)C3CCCCC3)c(=O)c3ccccc32)cc1F 26.2%
CCN1CCN(c2c(S(=O)(=O)c3ccc(Cl)cc3)cnc3ccccc23)CC1 0.898%
CCc1ccccc1NC(=O)N1CCc2cc(OC)c(OC)cc2C1CC(=O)OC (stereo unspecified) -25.3%
CCc1ccccc1NC(=O)CN1C(=O)COc2ccc(S(=O)(=O)Nc3ccccc3)cc21 28.3%
C#CCN(C)CC1=Cc2ccccc2Oc2ccccc21 -15.2%
COc1cc(C2c3c(-c4c(C)cc(C)cc4O)n[nH]c3C(=O)N2CCCOC(C)C)cc(OC)c1OC (stereo unspecified) -5.41%
Cc1cccc(N2CCN(C(=O)CCC(=O)NNc3nc4ccccc4c4nc(C)nn34)CC2C)c1 (stereo unspecified) -8.98%

outcome, inactive:
COc1ccc(-c2nnc(Nc3ccc(OC)c(C(N)=O)c3)c3ccccc23)cc1
COc1ccc(Cl)cc1NC(=O)Cn1c(=O)n(CCCC(=O)NCCc2ccc(OC)c(OC)c2)c(=O)c2ccccc21
O=C(CCSCc1cccc(F)c1)NCc1ccccc1
Cc1ccc(C)c(Nc2nc3c(S(=O)(=O)c4ccc(Br)cc4)nnn3c3ccsc23)c1
